Among all 44,000 compounds or so, about 340 (0.77%) were called active. Roughly 5% stayed inconclusive and do not appear here. Calls follow the shape of the dose curve; as a rule, active = well fitted inhibition curve with a large enough effect; inconclusive = small, poorly fitted or top-dose-only effect; inactive = flat fitted curve, though single readings scatter. The list shows a part of the results.
assay: Acumen qHTS Assay for Inhibitors of the mTORC1 Signaling Pathway in MEF (Tsc2-/-, p53-/-) Cells: Sytravon; conditions: phospho-rpS6 immunofluorescence/PI, 24 h; series mostly up to 38.3 µM; activity change, negative = inhibition: at the top concentration;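 also: plate controls were DMSO for no effect and rapamycin for full effect; nearly all actives have a fitted effect of over 50% in size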
Method in brief: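 Cell-based qHTS: Tsc2-/- p53-/- MEF, 24 h cpd, 37 °C; fix/perm, anti-phospho-S6 Alexa-488 + PI; Acumen 488 nm scan; pS6/PI ratio, % positive cells; rapamycin 7.5 nM = inhibition ref; PI count = viability.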

Activity change, negative = inhibition, inactive:
COc1cccc(CNC(=O)c2sc3nc(C)cc(C)c3c2-n2cccc2)c1OC 0.166%, Cc1ccc(Cl)cc1N1CCN(C(=O)c2ccc(NC(=O)c3nsc4ccccc34)cc2)CC1 -8.17%, CCOC(=O)COc1ccc(CC)cc1C(=O)c1ccn2nc(-c3ccccc3)cc2n1 1.29%, COC(=O)C(Cc1c[nH]c2ccccc12)NC(=O)COc1cccc(C)c1 (centres undefined) 13.7%, COC(=O)c1sccc1S(=O)(=O)N1CCN(c2cc(Cl)ccc2C)CC1 -22.7%, COCCNC(=O)CCn1c(=O)c2cc(OC)c(OC)cc2n(CC(=O)Nc2ccc(Cl)cc2F)c1=O -5.73%, Cc1ccc(-c2n[nH]c3c2C(c2ccc(C(C)(C)C)cc2)NC3=O)cc1 (centres undefined) -0.0043%, Cc1nn(S(=O)(=O)c2ccc(C(C)(C)C)cc2)c(C)c1S(=O)(=O)N1CCCCCC1 0.852%, Cc1ccc(NC(=O)c2oc3ccc(S(=O)(=O)N4CCC5(CC4)OCCO5)cc3c2C)cc1C 2.56%, CCC1CN(C(=O)N2CCC(C(=O)NCc3ccc(N(C)C)cc3)CC2)c2ccccc2O1 (centres undefined) -0.588%, COc1cccc(Nc2ccc3cc(S(=O)(=O)N4CCC(C)CC4)ccc3n2)c1 -3.64%, CCCCC(=O)NCc1nc2cccnc2n1Cc1ccc(OC)cc1 -7.98%, CCCOc1cccc(C(=O)Nc2cccc(-c3nc4ncccc4o3)c2C)c1 -0.133%, CCOC(=O)c1ccc(N2CCN(c3cc(C)ccc3C)CC2)c(NC(=O)Nc2ccc(CC)cc2)c1 6.72%, CC(=O)c1cccc(NC(=O)C2CCN(C(=O)c3cnn(-c4ccccc4)c3-n3cccc3)CC2)c1 -4.63%, Cc1c(C(=O)NCc2ccccc2Cl)sc2nc3n(c(=O)c12)CCCCC3 -2.22%, Cc1cn2c(=O)cc(COC(=O)c3cccc(NC(=O)c4ccc(C(C)(C)C)cc4)c3)nc2s1 7.95%, CCn1cc2nc(SCC(=O)Nc3ccc(OC)c(OC)c3)n(Cc3ccc(Cl)cc3)c(=O)c2n1 -6.19%, COc1ccc(-c2cc(-c3ccc(F)cc3)nc3c2COc2ccc(F)cc2-3)cc1 -1.54%, CCOc1ccc(-n2c(/C=C/c3cccc(F)c3)nc3cc(OC)c(OC)cc3c2=O)cc1 7.95%, COc1ccc(-c2oc3ncn4nc(-c5ccccc5O)nc4c3c2-c2ccc(OC)cc2)cc1 -13.4%, Cc1ccccc1-c1nc2scc(CCNS(=O)(=O)c3ccccc3)n2n1 -11%, Cc1nn2c(=O)cc(COC(=O)c3cccc(NC(=O)CCc4ccccc4)c3)nc2s1 -10.3%, O=C1CN(C(=O)COc2ccc(Cl)cc2)C(c2ccccc2)c2cc(Br)ccc2N1 (centres undefined) 0.936%, O=C(NCc1ccccc1)C1CCCN(S(=O)(=O)c2cccc3nsnc23)C1 (centres undefined) -8.95%, CC(C)(C)OC(=O)N1CCC(c2c(C(=O)Nc3ccc4c(c3)OCCO4)cnn2-c2ccc(Cl)cc2)CC1 2.18%, CCOc1ccc(NC(=O)CN2C(=O)CC(C)Sc3ccccc32)cc1 (centres undefined) 0.632%, Cc1ccc2c(c1)C(Cc1ccccc1F)C(=O)N2 (centres undefined) -9.93%, COc1ccc(CCNC(=O)C(CC(C)C)N2Cc3ccccc3C2=O)c(OC)c1OC (centres undefined) -4.19%, CCn1cc(CCC(=O)NCc2ccc(C)cc2)c2ccccc21 0.0273%, COc1cc2c(=O)n(Cc3ccccc3Cl)c(=O)n(CC(=O)Nc3ccc(C)c(C)c3)c2cc1OC 2.07%, CC(C)Oc1ccccc1C1C=C(C(=O)O)Nc2ncnn21 (centres undefined) -26.2%, COc1ccc(CCn2c3c(c(=O)[nH]c2=O)C(NC(=O)c2ccccc2F)(C(F)(F)F)C(=O)N3)cc1OC (centres undefined) -9.92%, COc1ccc(C)cc1NC(=O)C1CCN(S(=O)(=O)c2ccc3[nH]c(=O)oc3c2)CC1 0%, Cc1cccc(C(=O)Nc2cc(-c3nc4cccnc4s3)ccc2C)c1 6.04%, COc1ccc(NC(=O)CSc2nc3ccccc3n2CC(=O)N2CCCCC2C)cc1 (centres undefined) 14.3%, COc1ccc(-c2onc(C)c2C)cc1S(=O)(=O)NCc1ccc(C)o1 -10.4%, CCOc1cccc(CC(=O)NCc2ccc3c(c2)CCN3C(C)=O)c1OCC -0.0543%, CCC(C)NC(=O)CCc1c(C)nc2c(c(C)nn2-c2ccc(C)cc2)c1C (centres undefined) 2.98%, Cc1c(Cl)cccc1NC(=O)CC(c1ccc(F)cc1)N1Cc2ccccc2C1=O (centres undefined) -9.06%, COCC(C)NC(=O)c1cc2c(=O)n3cccc(C)c3nc2s1 (centres undefined) -6.55%, CCOC(=O)c1ccc(-c2ccc(/C=C(\C#N)c3nc4ccc(C)cc4[nH]3)o2)cc1 21.8%, CCN(c1ccc(Cl)cc1)S(=O)(=O)c1nnc(NC(=O)c2ccccc2C)s1 -19%, O=C(NCCCc1nc2ccccc2n1Cc1ccccc1Cl)c1ccco1 -0.199%, CC(CNC(=O)C1CCN(C(=O)N2CCOc3ccc(Cl)cc32)CC1)c1ccccc1 (centres undefined) -1.45%, O=[N+]([O-])c1cc(-c2nc(-c3ccco3)no2)ccc1NCc1ccccc1 -0.286%, CCc1ccc(Sc2cc(C(=O)O)c3ccccc3n2)cc1 -0.0414%, COc1ccc(Cn2c(CO)cnc2SCc2ccc(F)cc2)cc1 -8.68%, COc1ccc(-n2nc(C(=O)N(C)c3cc(Cl)ccc3OC)c3c4ccccc4n(C)c3c2=O)cc1 -0.247%, COc1ccc(S(=O)(=O)c2nnn(-c3ccccc3F)c2C)cc1 -1.86%, Cc1nn(CCCC(=O)NCc2ccc(OC(C)C)cc2)c(=O)c2c1sc1ccccc12 0.47%, Cc1ccc(Cc2nc3ccccc3nc2SCC(=O)N2CCN(c3ccccc3)CC2)cc1 10.6%, Cc1ccc(NC(=O)CC2Nc3cc(C)c(C)cc3NC2=O)c(C)c1 (centres undefined) 1.81%, N#CC1=C2SCN(C3CCCCC3)CN2C(=O)CC1c1c(F)cccc1Cl (centres undefined) -0.696%, Cc1ccc(S(=O)(=O)c2[nH]c(-c3ccccc3)nc2SCCC(=O)O)cc1 -0.332%, Cc1ccc(N2CC(NC(=O)CCc3ccccc3)CC2=O)cc1C (centres undefined) -4.85%, CCCn1c(=N)n(CC(O)COc2ccccc2OC)c2ccccc21 (centres undefined) -6.84%, Cc1cccc(CCNC(=O)c2ccc(CSCc3cccc(Cl)c3)o2)c1 3.09%, Cc1cccc(N(Cc2cc3ccccc3[nH]c2=O)C(=O)c2cccc(Cl)c2)c1 6.87%, CCOc1ccc(NC(=O)c2c(Nc3ccccc3C)sc(C(=O)c3ccc(Cl)cc3)c2N)cc1 -6.88%, Cc1nn(CC(=O)N2CCN(c3cccc(C(F)(F)F)c3)CC2)c(=O)c2cc3sccc3n12 1.19%, NC(=O)c1ccc(NC(=O)C2CCN(S(=O)(=O)Cc3ccccc3)CC2)cc1 2.14%, CCCN1CCN(c2cc3c(cc2F)c(=O)c(S(=O)(=O)c2ccc(CC)cc2)cn3CC)CC1 -3.52%, CCn1ccc2c(OCC(=O)NCc3ccccc3)cccc2c1=O 0.477%, CC1Cn2c(C(=O)NCc3cccc(Br)c3)cc3cccc(c32)S1 (centres undefined) -5.79%, Cc1cccc(-c2nc3c(cnn3-c3ccccc3)c(=O)n2-c2ccc(Br)cc2)c1 9.59%, COc1ccc2oc(-c3ccc(C)c(NC(=O)c4ccc(-c5ccccc5[N+](=O)[O-])o4)c3)nc2c1 -0.128%, Cc1ccc(C(=O)O)cc1NC1(c2ccccc2)C(=O)c2ccccc2C1=O 4.68%, Cc1c(Cl)cccc1NC(=O)CSc1nc2ncccc2o1 3%, COc1ccccc1CNC(=O)C1CCCN(c2nnc(C)c3c(C)n(-c4ccccc4)nc23)C1 (centres undefined) 0.738%, O=C(CCSCc1cccc(Cl)c1)NCc1ccc(F)cc1Cl 5.76%, CCc1ccccc1NC(=O)c1sc2nc(C)cc(COC)c2c1N -13.1%, Cc1ccc2[nH]c(CSc3nnc(NC(=O)c4ccccc4F)s3)cc(=O)c2c1 0.249%, C=Cc1ccc(Cn2c(=O)cc(C)c3c(C)nn(-c4ccccc4)c32)cc1 -1.24%, O=C(NC1(C(F)(F)F)C(=O)Nc2c1c(=O)[nH]c(=O)n2-c1ccccc1)c1ccccc1Cl (centres undefined) 1.66%, COc1cc(OC)cc(-c2cc3nc(C)c(CCC(=O)Nc4ccc(C(C)=O)cc4)c(C)n3n2)c1 -0.0451%, CSCCC(NS(=O)(=O)c1ccc2c(c1)oc(=O)n2C)C(=O)Nc1ccc(Cl)cc1 (centres undefined) -0.727%, COc1ccc(OCC(=O)N(Cc2cccs2)c2ccc(OC)cc2)cc1 -8.59%, COCc1cc(C)nc2sc3c(c12)NC(c1ccc(O)c(OC)c1)N(c1ccccc1)C3=O (centres undefined) 2.46%, COc1cc2c(C(=O)N3CCN(c4cccc(C(F)(F)F)c4)CC3)cn(CC(C)C)c(=O)c2cc1OC -0.133%, COc1ccc2c(c1)cc1c(=O)n(CC(=O)NCCCOC(C)C)nc(C)n12 -1.38%, CCn1c(C)c(C)c2cc(C(=O)NCc3ccc(OC(C)C)cc3)ccc21 7.07%, COc1ccc(NC(=O)Cn2c(=O)n(Cc3ccc4c(c3)OCO4)c(=O)c3ccc(C(=O)NC4CCCCC4)cc32)cc1 -11.5%, COc1ccc(-c2noc(N3CCC(C(=O)N4CCN(c5ccccc5F)CC4)CC3)n2)cc1 -8.97%, CCOCCCNc1nc2ccccc2n2c(CC)nnc12 0.828%, COc1ccccc1NC(=O)CSc1nc(-c2ccc(C)cc2)nc2c1Cc1c(CO)cnc(C)c1O2 -2.65%, Cc1nn2c(=O)cc(COC(=O)c3ccc(NC(=O)c4cccc(Br)c4)cc3)nc2s1 0%, COc1ccc(-c2cn3nc(N4CCCC(C(=O)Nc5ccccc5OC)C4)sc3n2)cc1 (centres undefined) -0.842%, COC(=O)c1ccccc1NC(=O)Cn1c(=O)n(CCC(=O)NCc2ccccc2OC)c(=O)c2ccccc21 -0.0981%, Cc1ccc(Cl)cc1NC(=O)CN1C(=O)CSc2ccc(S(=O)(=O)N3CCCC3)cc21 -9.17%, Cc1cccc(NC(=O)CCN2CCN(c3ccccc3F)CC2)c1 5.56%, CCOC(=O)c1c(S(=O)(=O)NCC(=O)N2CCN(c3cc(C)ccc3C)CC2)c(C)n(C)c1C -7.55%, Cc1cccc(N2CCN(c3ccc(C(=O)O)cc3NC(=O)c3cccc(Cl)c3)CC2C)c1 (centres undefined) 2.75%, CCc1ccc(-c2nc(SCC(=O)NCC3CCCO3)c(-c3ccc(C)cc3)[nH]2)cc1 (centres undefined) 6.8%

Source: PubChem BioAssay AID493208 (National Center for Advancing Translational Sciences (NCATS), 2011)
